Each block holds one binder with its values, some of them ahead of it.
Key:
[1] = molecular target: human Argonaute2 (recombinant AGO2) (human, UniProt Q9UKV8); assay: SEC
[2] = molecular target: human Argonaute4 (recombinant AGO4) (human, UniProt Q9HCK5); assay: SEC

binding result [1]: binds
binding result [2]: binds
B1: SUMO-fused TNRC6B V617-I636 fragment K629A (domain or fragment)
chain: not shown

binding result [1]: binds
binding result [2]: binds
B2: SUMO-fused TNRC6B V617-I636 fragment Q625E (domain or fragment)
chain: not shown
